In all, about 360,000 compounds went through this assay and about 660 (0.18%) were called active. Inconclusive results, whose numbers are uncertain, are shown with a selection of clear calls. The call rests on the fitted dose curve; in most records, active means well fitted inhibition curve with a large enough effect; inconclusive means small, poorly fitted or top-dose-only effect; inactive means no such curve, though single readings can be large or run the other way. No potency is given beside an inconclusive call; the fits are too rough.
What follows are molecules tested against Rap guanine nucleotide exchange factor 4 (Homo sapiens) (UniProt Q8WZA2) (assay: qHTS for Antagonist of cAMP-regulated guanine nucleotide exchange factor 2 (EPAC2): primary screen). Settings: EPAC2 GEF exchange of Rap1B-BODIPY-GDP, fluorescence; activity, negative = inhibition: at 114 µM (top of the series) unless noted.
Chain of UniProt Q8WZA2 (Q8WZA2 whole entry, looked up): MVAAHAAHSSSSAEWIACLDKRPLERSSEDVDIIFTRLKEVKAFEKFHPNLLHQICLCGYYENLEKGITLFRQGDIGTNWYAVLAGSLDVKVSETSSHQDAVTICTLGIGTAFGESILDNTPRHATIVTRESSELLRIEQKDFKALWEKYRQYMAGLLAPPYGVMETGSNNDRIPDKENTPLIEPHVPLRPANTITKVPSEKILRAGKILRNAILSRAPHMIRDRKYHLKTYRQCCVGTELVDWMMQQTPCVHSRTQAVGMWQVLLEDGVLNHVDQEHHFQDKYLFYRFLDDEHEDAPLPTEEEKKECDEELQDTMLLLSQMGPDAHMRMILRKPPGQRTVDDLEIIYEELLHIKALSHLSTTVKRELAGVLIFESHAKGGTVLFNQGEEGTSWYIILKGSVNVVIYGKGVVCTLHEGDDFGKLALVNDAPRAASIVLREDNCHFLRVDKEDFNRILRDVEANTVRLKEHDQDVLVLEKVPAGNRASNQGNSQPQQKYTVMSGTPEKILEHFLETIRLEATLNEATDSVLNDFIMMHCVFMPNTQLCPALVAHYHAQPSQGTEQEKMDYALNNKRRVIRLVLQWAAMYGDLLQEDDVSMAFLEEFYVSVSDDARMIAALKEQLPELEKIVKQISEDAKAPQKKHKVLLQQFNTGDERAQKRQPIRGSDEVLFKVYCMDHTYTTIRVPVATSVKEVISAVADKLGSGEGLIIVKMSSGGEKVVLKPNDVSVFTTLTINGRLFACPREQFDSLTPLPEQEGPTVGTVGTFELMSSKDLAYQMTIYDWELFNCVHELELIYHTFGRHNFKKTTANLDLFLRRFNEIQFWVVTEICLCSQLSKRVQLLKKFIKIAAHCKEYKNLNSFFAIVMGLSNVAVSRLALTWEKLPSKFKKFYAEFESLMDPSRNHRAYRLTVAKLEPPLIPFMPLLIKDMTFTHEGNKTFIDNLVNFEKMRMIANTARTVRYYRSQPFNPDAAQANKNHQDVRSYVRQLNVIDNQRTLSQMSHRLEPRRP
Excerpt: In multi-cellular eukaryotic organisms, the effects of cAMP are transduced by two ubiquitously-expressed intracellular cAMP receptors, the classic protein kinase A/cAMP-dependent protein kinase (PKA/cAPK) and the more recently discovered exchange protein directly activated by cAMP/cAMP-regulated guanine nucleotide exchange factor (EPAC/cAMP-GEF). Both PKA and EPAC are ubiquitously expressed in all tissues, and an increase in intracellular cAMP levels will lead to the activation of both PKA and EPAC. Therefore, careful dissections of the individual role and relative contribution of EPAC and PKA within the overall cAMP signaling in various model systems are critical for further elucidating the mechanism of cAMP signaling. To date no EPAC-specific antagonists and agonist, as well as isoform-specific agonists have been reported, and developing EPAC-specific pharmacological probes to determine the physiological functions that EPAC play in the overall cAMP-mediated signaling remains a major challenge within the research field. Furthermore, identified regulators of EPAC may lead to new mechanism-based therapeutic strategies specifically targeting the EPAC / cAMP-signaling components as EPAC has been implicated to play important roles in major human pathological conditions such as diabetes, heart disease, and cancer.
This qHTS will be used to screen the Molecular Libraries Small Molecule Repository (MLSMR) as a concentration-titration series using the NCGC unique quantitative screening (qHTS) platform to find inhibitors for EPAC2. In addition, this assay will also be used as a counterscreen for the EPAC1 qHTS. This fluorescent based assay is developed and validated for EPAC2 that measures exchange using EPAC effector Rap1 complex with BODIPY-GDP, a GDP analog with a tethered fluorophores. Inhibitors are identified by monitoring the change in fluorescence signal as the exchanged free BODIPY-GDP has a reduced fluorescence compared to Rap1-bound BODIPY-GDP. Decrease in signal (inhibition) is the desired outcome for the EPAC2 antagonist while no activity in this assay is desired for the EPAC1 antagonist counterscreen.
NIH Chemical Genomics Center [NCGC]
NIH Molecular Libraries Probe Centers Network [MLPCN]
Assay Submitter (PI): Xiaodong Cheng, The University of Texas, Medical Branch
Briefly, three uL of reagents (100 nM EPAC2, 250 nM RAP1B-BODIPY-GDP, 50 uM GDP) were dispensed into a 1536-well Greiner black solid-bottom medium binding assay plate. Controls and test compounds (23 nL) were transferred to the plate via a Kalypsys pin tool equipped with a 1536-pin array. The plates were centrifuged at 1,000 rpm for 15 seconds followed by 5 minute incubation at room temperature. The assay plates were read at 5 minute intervals for 30 minutes in the ViewLux plate reader using 480nm excitation and 540nm emission filters. The results were normalized to the agonist positive control ATA and DMSO.
Further: nearly all actives have a fitted effect of over 45% in size.
On the % scale 0 is the no-effect control and ±100 the full control effect; potency means the concentration at half of the fitted maximal effect; tags describe the fitted curve by direction and shape.

Row | SMILES | Potency | activity, negative = inhibition
1 | Clc1c(CSc2nc3ccccc3o2)nc2ccccn12 | inconclusive [inhibitor, partial curve] | 
2 | COC(=O)c1c(NC(=O)C2=COCCO2)sc(C)c1C | inconclusive [inhibitor, full curve, poor fit] | 
3 | CC(O)(c1cccc(F)c1)c1nc(-c2cc(F)cc(F)c2)cs1 (centres undefined) | inconclusive [inhibitor, full curve] | 
4 | CC(C)CO/C(=N/S(=O)(=O)c1ccccc1)c1ccccc1 | inconclusive [inhibitor, partial curve] | 
5 | CCCSc1ccc([C@H]2N[C@@](CC(C)C)(C(=O)OC)[C@H]3C(=O)N(C)C(=O)[C@@H]23)cc1 | inconclusive [inhibitor, single point] | 
6 | CC(=O)c1cccc(NC(=O)Nc2ccc(C)cc2)c1 | inconclusive [inhibitor, partial curve] | 
7 | CC(=O)c1ccc(N2CCN(CC(O)COC(c3ccccc3)c3ccccc3)CC2)cc1 (centres undefined) | inconclusive [inhibitor, single point] | 
8 | O=C(O)CN1C(=O)/C(=C\c2cc(Br)ccc2OCc2ccccc2F)SC1=S | active: 56.2 µM | 
9 | CCc1c(C#N)c(N)nc(SCC(=O)OCc2ccccc2)c1C#N | inconclusive [inhibitor, single point] | 
10 | CN1CCc2nc(SCC(=O)Nc3ccc(OC(F)(F)F)cc3)c(C#N)c(-c3cccs3)c2C1 |  | inactive: -9.09%
11 | O=C(C1CCN(CC2CC=CCC2)CC1)N(CCc1ccccc1)Cc1ccccc1 (centres undefined) |  | inactive: 6.07%
12 | Cc1cc(NS(=O)(=O)c2ccc(NC(=O)COc3c(C)cc(Br)cc3C)cc2)no1 | active: 17.8 µM | 
13 | O=[N+]([O-])c1ccc(O)c2ncccc12 |  | inactive: -12.3%
14 | CC(C)(C)c1ccc(-c2noc(CCC(=O)NCc3ccco3)n2)cc1 | inconclusive [inhibitor, partial curve, poor fit] | 
15 | CC1COc2ccccc2N1S(=O)(=O)c1ccccc1 (centres undefined) | inconclusive [inhibitor, full curve] | 
16 | CC(=O)c1c(C(C)=O)c(C)n(C(c2ccccc2)c2ccccc2)c1C | inconclusive [inhibitor, full curve] | 
17 | CC1(Cc2ccc(F)cc2)C(=O)Nc2ccc(-c3cccnc3)cc21 (centres undefined) | inconclusive [inhibitor, partial curve] | 
18 | N#Cc1nc(COc2ccccc2Cl)oc1NCc1cccnc1 |  | inactive: 4.11%
19 | COc1ccc(Cl)cc1NC(=O)CSc1nc(C)cc(C)n1 | inconclusive [inhibitor, partial curve] | 
20 | OCCCNc1ncnc2oc(-c3ccccc3)c(-c3ccccc3)c12 | inconclusive [inhibitor, partial curve] | 
21 | CCOC(=O)c1c(NC(=O)CN2CCC(C)CC2)sc(C)c1C | inconclusive [inhibitor, full curve, poor fit] | 
22 | CCCCC1CC2=C(C(=O)OC(C)(C)O2)C(c2ccc(Cl)cc2)O1 (centres undefined) | inconclusive [inhibitor, single point] | 

Row | SMILES | Potency | activity, negative = inhibition
23 | COc1ccc(Cl)cc1S(=O)(=O)N1CCN=C1C |  | inactive: -13.9%
24 | COC(=O)c1ccccc1NC(=O)c1nc(S(=O)(=O)Cc2ccccc2)ncc1Cl |  | inactive: 11.7%
25 | CCC/C=C(\CCC)C(NS(=O)(=O)c1cccc2cccnc12)c1ccc(C(=O)OC)cc1 (centres undefined) | inconclusive [inhibitor, full curve, poor fit] | 
26 | Cc1ccc(S(=O)(=O)N2C[C@H]3C(=O)C[C@@H](c4cccc(Cl)c4)N(S(=O)(=O)c4ccc(C)cc4)[C@H]3C[C@H]2c2ccc(Cl)cc2)cc1 |  | inactive: 3.47%
27 | Cc1cn([C@H]2C[C@H](O)[C@@H](CCC(=O)NCc3ccc4c(c3)OCO4)O2)c(=O)[nH]c1=O | inconclusive [inhibitor, single point] | 
28 | CC(Oc1ccc(Cl)cc1Cl)c1ccnc(N)n1 (centres undefined) | inconclusive [inhibitor, partial curve] | 
29 | CC(=O)c1ccc(S(=O)(=O)N2CCN(C(C)C(=O)N(C)Cc3ccccc3)CC2)cc1 (centres undefined) | inconclusive [inhibitor, partial curve, poor fit] | 
30 | COc1ccc(OC)c(C2=CC(=O)C[C@H](c3ccc4c(c3)OCO4)C2)c1 | inconclusive [inhibitor, single point] | 
31 | COc1ccc(N=C2SCC(c3ccc(C)cc3)=NN2CCO)cc1 | inconclusive [inhibitor, partial curve] | 
32 | CN(C(=O)c1ccco1)c1nnc(-c2ccc(F)cc2)s1 |  | inactive: 3.19%
33 | CC(Oc1ccccc1)C(=O)Nc1nnc(S(=O)(=O)N2CCCCCC2)s1 (centres undefined) | inconclusive [inhibitor, partial curve] | 
34 | C=CCn1c(N)c(C(=O)Nc2ccc(C)cc2)sc1=S |  | inactive: 4.34%
35 | CSc1ccccc1C(=O)Nc1ncn[nH]1 |  | inactive: -6.68%
36 | CCn1cc(C(=O)NCCC(=O)OC)c(=O)c2cc3c(cc21)OCO3 | inconclusive [inhibitor, single point] | 
37 | Oc1cccc(/C=N/N(Cc2ccccc2)c2ccccc2)c1 |  | inactive: -15.5%
38 | CN1CCN(S(=O)(=O)c2ccc(Br)c3ccccc23)CC1 | inconclusive [inhibitor, partial curve] | 
39 | Cn1c(SCc2ccccc2)nc(C(F)(F)F)cc1=O | inconclusive [inhibitor, partial curve] | 
40 | CCOc1cc(/C=C2/SC(=S)NC2=O)ccc1OC(=O)c1ccco1 | active: 35.5 µM | 
41 | CC1(C(=O)NC2CCCCCC2)CCN1C(=O)Cc1ccc(-c2ccccc2)cc1 (centres undefined) | inconclusive [inhibitor, partial curve] | 
42 | CC(/C=N\NC(=O)CN1CCN(S(=O)(=O)c2ccc(C)cc2)CC1)=C\c1ccccc1 |  | inactive: -12.4%
43 | Cc1sc(NC(=O)CSC2=NCCS2)nc1-c1ccccc1 |  | inactive: -2.42%
44 | COc1cc(/C=C2\SC(=O)N(c3ccccc3Cl)C2=O)cc([N+](=O)[O-])c1O | inconclusive [inhibitor, partial curve] | 

Reference: PubChem BioAssay AID720708 (National Center for Advancing Translational Sciences (NCATS), 2013)
